Assay results as given in the supplement of paper PMC9446081.
Out of some 39,000 compounds screened, about 220 (0.56%) showed activity. The list shows a part of the results.
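Also: static incubation at 37 °C against the wild-type strain, values averaged over two biological replicates.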

The compounds below were run on Escherichia coli K-12 BW25113 (assay: relative growth (OD600 normalised to plate interquartile mean) (fraction); higher = less growth inhibition, active = 0.2 or less). Conditions: 50 µM; LB; incubation time: overnight (16-24 h).
Cc1cc[n+](C)cc1 was tested, and the relative growth was inactive: 0.995. With C[N+]12CCC(CC1)C(OC(=O)C(O)(c1ccccc1)c1ccccc1)C2.[Br-] (stereo unspecified) the relative growth was inactive: 0.968. With CCN1C[C@]2(COC)CC[C@@H](OC)[C@@]34[C@@H]2[C@@H](OC)[C@@H]([C@@H]13)[C@]1(OC(C)=O)C[C@@H](OC)[C@@]2(O)C[C@H]4[C@@H]1[C@H]2OC(=O)c1ccc(OC)cc1 the relative growth was inactive: 1.02. With CC(O)(CS(=O)(=O)c1ccc(F)cc1)C(=O)Nc1ccc(C#N)c(C(F)(F)F)c1 (stereo unspecified) the relative growth was inactive: 1.03. In the case of C[C@H]1CN([C@@H](C)CO)C(=O)CCCn2nncc2CO[C@@H]1CN(C)C(=O)Oc1ccc2ccccc2c1, the relative growth is reported as inactive: 0.907. O=C1C[C@@H](c2ccc(O)cc2)CN1 was tested, and the relative growth was inactive: 0.997. For [N-]=[N+]=Nc1ccccc1C[C@@]1(C(=O)NCCN2CCOCC2)N=C(c2ccc(OCCCO)cc2)O[C@@H]1c1ccccc1N=[N+]=[N-], the relative growth was inactive: 1. In the case of C[C@@H]1CC[C@@]2(OC1)O[C@H]1[C@@H](O)[C@H]3[C@H]4CC[C@H]5C[C@H](O[C@@H]6O[C@H](CO)[C@H](O[C@@H]7O[C@H](CO)[C@@H](O)[C@H](O[C@@H]8OC[C@@H](O)[C@H](O)[C@H]8O)[C@H]7O[C@@H]7O[C@H](CO)[C@H](O)[C@H](O[C@@H]8O[C@H](CO)[C@@H](O)[C@H](O)[C@H]8O)[C@H]7O)[C@H](O)[C@H]6O)[C@H](O)C[C@]5(C)[C@@H]4CC[C@]3(C)[C@H]1[C@@H]2C, the relative growth is reported as inactive: 1.02. In the case of Cc1nccc2c1[nH]c1cc(O)ccc12, the relative growth is reported as inactive: 0.9. With COc1cc2c(cc1OC)C1C(=O)c3ccc4c(c3OC1CO2)CC(C(C)C)O4 (stereo unspecified) the relative growth was inactive: 0.996. In the case of CCCCS(=O)(=O)N1C[C@H]2CNC[C@@H]2C1, the relative growth is reported as inactive: 0.992. CC(C)c1cccc(C(C)C)c1O was tested, and the relative growth was inactive: 0.859. For OCc1ccco1, the relative growth was inactive: 1.05. In the case of C[C@@]12NC(=O)CN1CCc1ccccc12, the relative growth is reported as inactive: 1.03. For CC(C)(CN)CNc1ccc([N+](=O)[O-])c2cccnc12, the relative growth was inactive: 0.97. In the case of COc1c(C[C@@H](C)O)c2c3c(C[C@@H](C)O)c(OC)c(=O)c4c(O)cc5c(c6c(cc(O)c(c1=O)c62)OCO5)c43, the relative growth is reported as inactive: 1.08. In the case of O=C(Cc1ccccc1)c1ccccc1, the relative growth is reported as inactive: 0.986. With O[C@@H]1[C@@H]2C[C@H]3[C@H]1N[C@@H]1C[C@@H]2[C@@H]3[C@H]1O the relative growth was inactive: 0.919. For CCOc1ccc(CN)cn1, the relative growth was inactive: 0.985. For NCCc1nnc2n1CCCCC2, the relative growth was inactive: 0.997. In the case of CC(=O)N[C@H]1CCSC1=O, the relative growth is reported as inactive: 1.01. In the case of C=C1[C@H]2CC[C@H]3[C@]4(C)C[C@H](O[C@H]5O[C@@H](CO)[C@@H](OS(=O)(=O)O)[C@H](OS(=O)(=O)O)[C@H]5OC(=O)CC(C)C)C[C@@H](C(=O)O)[C@H]4CC[C@]3(C2)[C@H]1O, the relative growth is reported as inactive: 1.02. For Cc1cc([C@@H](C#N)c2ccc(Cl)cc2)c(Cl)cc1NC(=O)c1cc(I)cc(I)c1O, the relative growth was inactive: 0.985. COc1ccc2c(c1OC)C(=O)OC2C1c2cc3c(cc2CCN1C)OCO3 (stereo unspecified) was tested, and the relative growth was inactive: 1.1. Cc1cccc(CN2C[C@H]3OCCN(C)[C@H]3C2)n1 was tested, and the relative growth was inactive: 0.971. For CC(=O)OC[C@]12CCC(C)=C[C@H]1O[C@@H]1[C@H](O)[C@@H](OC(C)=O)[C@@]2(C)[C@]12CO2, the relative growth was inactive: 0.969. With N[C@H](CO)Cc1ccccc1 the relative growth was inactive: 0.994. C=C[C@H]1[C@H](O[C@@H]2O[C@H](CO)[C@@H](O)[C@H](O)[C@H]2O)OC=C2C(=O)OCC[C@H]21 was tested, and the relative growth was inactive: 0.992. In the case of O=C(C1CCCC1)N1C[C@@H]2CCNC[C@@H]21, the relative growth is reported as inactive: 1. In the case of COc1cc([C@@H](O)CN)ccc1O, the relative growth is reported as inactive: 1.01. With C=CCC1(O)CCC2C3CCC4=CCCCC4C3CCC21C (stereo unspecified) the relative growth was inactive: 0.969. With CC1(C)C(=O)C2OC2C2(C)C1CC(O)C1(C)C2CCC2(C)C(c3ccoc3)OC(=O)C3OC321 (stereo not drawn) ["1,2alpha-EPOXYDEACETOXYDIHYDROGEDUNIN"] the relative growth was inactive: 1.11. O=[N+]([O-])c1cc(O)c(O)c([N+](=O)[O-])c1 was tested, and the relative growth was inactive: 0.986. In the case of C[C@@H]1[C@H](O)[C@@H](C)/C=C\C=C/CC\C=C/C=C\C=C/C=C\[C@H](O[C@@H]2O[C@H](C)[C@@H](O)[C@H](N)[C@@H]2O)C[C@@H]2O[C@](O)(C[C@@H](O)[C@H](O)CC[C@@H](O)C[C@@H](O)C[C@@H](O)CC(=O)O[C@H]1C)C[C@H](O)[C@H]2C(=O)O, the relative growth is reported as inactive: 1. CN(C)C1=NC(=O)C2(CCNCC2)N1 was tested, and the relative growth was inactive: 1.03. For CC1CCC2C(C)C(=O)OC3OC4(C)CCC1C32OO4 (stereo unspecified), the relative growth was inactive: 0.566. In the case of O=C1C[C@@H](c2ccncc2)C2(CCNCC2)N1, the relative growth is reported as inactive: 0.917. With C[C@H](CO)N1C[C@H](C)[C@H](CN(C)C(=O)Oc2ccc3ccccc3c2)OCc2cn(nn2)CCCC1=O the relative growth was inactive: 1.02. For OCCN[C@@H]1c2ccccc2[C@H]2CNC[C@H]21, the relative growth was inactive: 0.989. In the case of Cc1ccc2n[nH]c(CN)c2c1, the relative growth is reported as inactive: 0.959. With N.N.[Cl][Pt][Cl] the relative growth was inactive: 1. CNC(=O)Oc1ccc2c(c1)C1(C)CCN(C)C1N2C.O=S(=O)(O)O (stereo unspecified) was tested, and the relative growth was inactive: 0.839. In the case of N/N=C(/N)NO, the relative growth is reported as inactive: 1.03. C1CNC[C@@H](N2CCCC2)C1 was tested, and the relative growth was inactive: 0.916. In the case of CCC1=C[C@@H]2[C@H](C1)C[C@]2(CN)CC(=O)O, the relative growth is reported as inactive: 1. With O=C(O)CC[N+](=O)[O-] the relative growth was inactive: 0.781. In the case of c1ccc2cc3c(cc2c1)-c1cccc2cccc-3c12, the relative growth is reported as inactive: 1.02. [N-]=[N+]=NCc1ccccc1C[C@]1(C(=O)N2CCOCC2)N=C(c2ccc(OCCCO)cc2)O[C@H]1c1ccccc1N=[N+]=[N-] was tested, and the relative growth was inactive: 1.06. Cc1cc2ccccc2n1CCN was tested, and the relative growth was inactive: 0.978. In the case of CC1C=CC=CCCC=CC=CC=CC=CC(OC2OC(C)C(O)C(N)C2O)CC2OC(O)(CC(O)C(O)CCC(O)CC(O)CC(O)CC(=O)OC(C)C(C)C1O)CC(O)C2C(=O)O (stereo unspecified), the relative growth is reported as inactive: 1.1. Clc1cc2c(cc1Cl)Oc1cc(Cl)c(Cl)cc1O2 was tested, and the relative growth was inactive: 0.971.
